About 14,000 (4.5%) of roughly 310,000 compounds showed an effect of 50% or more. Effects have a minus sign here. The list shows a part of the results.
target: human ether-à-go-go-related gene (hERG) potassium channel (human, UniProt Q12809); assay: primary screen, population patch clamp on CHO cells stably expressing hERG
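Further: peak tail current of the secondary pulse compared with the same well before compound.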

Chain of human ether-à-go-go-related gene (hERG) potassium channel (Q12809 whole entry, looked up): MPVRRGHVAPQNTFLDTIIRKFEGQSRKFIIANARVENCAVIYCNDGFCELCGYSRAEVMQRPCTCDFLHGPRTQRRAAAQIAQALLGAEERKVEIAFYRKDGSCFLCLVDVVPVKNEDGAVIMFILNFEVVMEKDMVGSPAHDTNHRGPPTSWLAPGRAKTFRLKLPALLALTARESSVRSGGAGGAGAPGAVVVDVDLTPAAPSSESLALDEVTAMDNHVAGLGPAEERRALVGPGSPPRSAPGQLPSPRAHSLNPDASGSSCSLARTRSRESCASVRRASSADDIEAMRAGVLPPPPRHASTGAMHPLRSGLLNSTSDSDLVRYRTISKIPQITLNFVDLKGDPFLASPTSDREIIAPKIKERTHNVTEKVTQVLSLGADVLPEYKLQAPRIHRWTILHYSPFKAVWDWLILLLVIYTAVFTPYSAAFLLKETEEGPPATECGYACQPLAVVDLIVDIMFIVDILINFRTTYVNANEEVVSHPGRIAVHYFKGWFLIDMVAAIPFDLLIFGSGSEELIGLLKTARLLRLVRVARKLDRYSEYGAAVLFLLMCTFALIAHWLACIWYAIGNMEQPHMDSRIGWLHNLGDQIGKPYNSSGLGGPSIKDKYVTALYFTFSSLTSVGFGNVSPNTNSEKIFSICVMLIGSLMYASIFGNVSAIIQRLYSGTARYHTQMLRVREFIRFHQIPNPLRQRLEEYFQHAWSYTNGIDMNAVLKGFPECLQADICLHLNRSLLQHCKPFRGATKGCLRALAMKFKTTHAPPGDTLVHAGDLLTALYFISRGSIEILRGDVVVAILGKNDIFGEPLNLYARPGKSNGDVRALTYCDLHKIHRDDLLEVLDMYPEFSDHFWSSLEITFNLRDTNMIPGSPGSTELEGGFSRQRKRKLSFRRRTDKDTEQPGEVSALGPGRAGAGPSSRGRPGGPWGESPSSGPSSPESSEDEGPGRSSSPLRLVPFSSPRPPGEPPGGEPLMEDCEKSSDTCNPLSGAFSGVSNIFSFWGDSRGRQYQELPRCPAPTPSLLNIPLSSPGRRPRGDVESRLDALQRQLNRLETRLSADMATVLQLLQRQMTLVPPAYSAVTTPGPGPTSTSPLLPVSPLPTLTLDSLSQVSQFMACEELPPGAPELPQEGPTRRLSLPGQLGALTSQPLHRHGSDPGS

| SMILES | hERG current change (%, negative = inhibition) at 10uM [%] |
| --- | --- |
| Cc1c(C(=O)N2CCC3(CC2)OCCO3)oc2ccc(S(=O)(=O)N3CCOCC3)cc12 | 6.5 |
| O=C(CCCc1c[nH]c2ccccc12)N[C@@H](Cc1c[nH]c2ccccc12)C(=O)O | 18.9 |
| COc1ccc(C(=O)C2CCCN(Cc3cccn3-c3nccs3)C2)cc1OC (stereo not drawn) | -82 |
| FC(F)(F)c1nc2ccccc2c2nc3ccccc3n12 | 25.4 |
| C[C@H]1CN=C(N(C)C)N1CC1CCCC1 | 7.36 |
| COC(=O)N1C(c2ccccc2)C1c1ccccc1 (stereo not drawn) | 19.1 |
| COc1ccc(OC)c(C2C(C(N)=O)=C(C)Nc3nc(-c4cccc(Cl)c4)nn32)c1 (stereo not drawn) | -26.7 |
| CC(C)CC(NC(=O)C1CCC(C)CC1)C(=O)NCc1ccccn1 (stereo not drawn) | 18 |
| COc1ccc(-c2[nH]ncc2-c2ccc(Cl)cc2)c(O)c1 | 2.36 |
| CCOc1ccc(-n2ccc(=O)c(C(=O)Nc3ccc(S(=O)(=O)Nc4ncccn4)cc3)n2)cc1 | 7.22 |
| O=C(Nc1cccc([N+](=O)[O-])c1)c1ccc(CN2CCOCC2)cc1 | -17.5 |
| O=S(=O)([N-]c1nc2ccccc2nc1-[n+]1ccccc1)c1ccc(Cl)cc1 | -10.5 |
| CCn1cc(C(=O)OCC(=O)Nc2c(C)n(C)n(-c3ccccc3)c2=O)c(=O)c2ccc(C)nc21 | -5.21 |
| CCCc1nccn1S(=O)(=O)c1cc(OC)ccc1OC | -7.88 |
| CCCS(=O)(=O)N1CCC(C(=O)NCc2ccc(F)cc2)CC1 | -9.89 |
| O=C(CSC1=NS(=O)(=O)c2cc(Cl)ccc2N1)NCCc1ccccc1 | 15.4 |
| Nc1nnc(C(F)(F)F)s1 | 9.26 |
| Cc1c([N+](=O)[O-])cc(S(=O)(=O)Nc2ccc(-c3ccc(N4CCCC4)nn3)cc2)cc1[N+](=O)[O-] | 3.05 |
| O=C(CN(C(=O)CCC(=O)Nc1ccccn1)c1cccc(F)c1)NCc1ccc2c(c1)OCO2 | 4.96 |

| SMILES | hERG current change (%, negative = inhibition) at 10uM [%] |
| --- | --- |
| Cc1ccc(S(=O)(=O)Nc2nc(C)c(C(=O)Nc3ccccc3)s2)cc1 | 7.58 |
| COC(=O)C1CCCN1C(C(=O)NC1CCCCC1)c1ccc(Cl)cc1 (stereo not drawn) | 2.3 |
| CCOc1ccc(NC(=O)CSc2nnc(Cn3c(=O)sc4ccccc43)n2C)cc1 | -4.3 |
| CCOC(=O)CCNC(=O)N1CCCC(N(C)CCc2ccccc2)C1 (stereo not drawn) | -49.4 |
| O=C(Nc1cccc(S(=O)(=O)NC2=NCCC2)c1)c1cc(-c2ccccn2)nc2ccccc12 | 13.8 |
| CN(CC(=O)N1CCCCCC1)S(=O)(=O)c1ccccc1 | 5.25 |
| COc1ccc(C(=O)NCc2ccccn2)cc1 | 9.55 |
| Cc1[nH]n(-c2ccccc2)c(=O)c1/C=N/Nc1nncc(-c2ccccc2)n1 | 6.56 |
| CC(C)CC(=O)Nc1ccccc1N1CCCC1 | 12.4 |
| O=C(Nc1ccccc1F)c1ccncc1 | 24.8 |
| COc1ccc2[nH]c3c(N4CCC(O)(c5cccc(C(F)(F)F)c5)CC4)ncnc3c2c1 | -3.71 |
| S=C(NCc1ccccc1)NC1CCCc2ccccc21 (stereo not drawn) | -9.49 |
| Oc1cccc(NC(=S)N=Nc2c(O)[nH]c3ccccc23)c1 | -0.615 |
| CCS(=O)CCSc1nc2ccccc2s1 (stereo not drawn) | 7.66 |
| O=C(Cc1ccc(S(=O)(=O)N2CCOCC2)s1)N1CCN(S(=O)(=O)c2cccc(Cl)c2)CC1 | -5.33 |
| Cc1ncc[nH]1 | 21.5 |
| Cc1ccc(NC(=O)CN2CCc3cc4c(cc3C2C)OCCCO4)cc1 (stereo not drawn) | -14.2 |
| Cc1noc(C)c1CCC(=O)Nc1c(C(C)C)cccc1C(C)C | -28.6 |
| CC(C(=O)N=Nc1c(O)n(C)c2ccc(Br)cc12)n1cnc2ccccc2c1=O (stereo not drawn) | 1.18 |

| SMILES | hERG current change (%, negative = inhibition) at 10uM [%] |
| --- | --- |
| Cc1ccc(-c2ccc3nnc(SCC(=O)NCC4CCCO4)n3n2)cc1 (stereo not drawn) | -3.04 |
| CC1CC(Nc2ccccc2)c2ccccc2N1C(=O)c1ccco1 (stereo not drawn) | -6.29 |
| COc1cc2c(cc1NC(=O)c1cc(-c3cccnc3)nc3ccc(C)cc13)oc1ccccc12 | 8.86 |
| COc1cc(OC)cc(C(=O)NCCOC23CC4CC(CC(C4)C2)C3)c1 | -28.4 |
| O=C(O)CCC(=O)Nc1ccc(N2CCCCCC2)cc1 | 11.1 |
| COc1cccc(C(N)=O)c1 | 8.86 |
| Cc1cnc(C(=O)Nc2ccccc2F)cn1 | 15 |
| CCCc1nc(NCCO)c(C#N)c2c1CCCC2 | -18.9 |
| CCc1ccc(C(=O)NNC(=O)c2ccc3c(=O)n4c(nc3c2)CCC4)cc1 | 5.5 |
| COc1ccccc1OCC(=O)Nc1ccc(S(=O)(=O)Nc2cc(C)on2)cc1 | 19.1 |
| O=C(c1ccccc1Oc1nnnn1-c1ccccc1)N1CCOCC1 | 6.79 |
| COC(=O)c1ccccc1S(=O)(=O)N(Cc1ccco1)Cc1cc2cc(OC)ccc2[nH]c1=O | -11.2 |
| COc1ccc(C=O)cc1OC(=O)N1CCOCC1 | 6.45 |
| CC(C)CCn1c(=O)c2ccccc2n2c(CN3CCOCC3)nnc12 | -11.9 |
| O=C(Cn1cnc2ccccc2c1=O)N/N=C/c1ccc(Br)cc1 | 10.4 |
| O=C(N/N=C/C1CCCCC1)c1ccccn1 | -2.21 |
| Cn1c(C(=O)NCCc2c[nH]c3ccccc23)cc2sccc21 | -7.56 |
| COc1ccc2[nH]c3nc(SCC(=O)Nc4cccc(NC(C)=O)c4)nnc3c2c1 | 20.2 |
| COC(=O)c1c(C)oc2ccc(OC(=O)c3cccs3)cc12 | -12.5 |

Source: publication PMC4336329 (PLoS ONE, 2015)
